From the supplement of paper PMC12217912
This is one part of the list. Sequences were assembled here from the parent chain. Values near 0.05 are background.

B1: TEV protease; numbered along this chain (parent)
chain: MGESLFKGPRDYNPISSSICHLTNESDGHTTSLYGIGFGPFIITNKHLFRRNNGTLVVQSLHGVFKVKDTTTLQQHLVDGRDMIIIRMPKDFPPFPQKLKFREPQREERICLVTTNFQTKSMSSMVSDTSCTFPSGDGIFWKHWIQTKDGQCGSPLVSTRDGFIVGIHSASNFTNTNNYFTSVPKNFMELLTNQEAQQWVSGWRLNADSVLWGGHKVFMVKPEEPFQPVKEATQL

Variants of: B1
Experiment: raw area under fraction-flipped curve 0-4 h after induction (AUC4h, not background-subtracted), DNA-recorder readout of cleavage of the substrate (dimensionless); higher = more cleavage of the substrate by the protease variant
Conditions: temperature: 34 °C; time window: 0-4 h after rhamnose induction
Experimental: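 In vivo DNA recorder in E. coli TOP10(DE3) ΔrhaA at 34 °C. Each TEVp single-site mutant (parent TEVp 0) is paired with a single-site variant of the 7-mer TEVs (canonical ENLYFQ|S). The substrate sits between flexible linkers in a Bxb1-sfGFP-TEVs-SsrA fusion, so cleavage stabilises Bxb1 and speeds flipping of a recombination array, read by NGS. The value is the raw area under the fraction-flipped curve over 0-4 h after rhamnose induction (AUC4h), with ≥20 reads per time point. It is not background-subtracted; inactive controls average about 0.047.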
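Also: Bxb1 expression induced with 0.2% (w/v) L-rhamnose at OD600 near 0.5, cultures sampled hourly, flipped fraction per protease–substrate barcode pair counted by paired-end Illumina sequencing.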

Variant	area with substrate ENLYFAS	area with substrate ENLYFCS	area with substrate ENLYFDS	area with substrate ENLYFES	area with substrate ENLYFFS	area with substrate ENLYFGS	area with substrate ENLYFHS	area with substrate ENLYFIS	area with substrate ENLYFKS	area with substrate ENLYFMS	area with substrate ENLYFNS	area with substrate ENLYFPS	area with substrate ENLYFRS	area with substrate ENLYFTS	area with substrate ENLYFWS	area with substrate ENLYFYS	area with substrate ENLYFSS	area with substrate ENLYFVS	area with substrate ENLYFLS
A196N	0.0691	0.0581	0.053	0.0606	0.0849	0.0545	0.0479	0.0688	0.0787	0.0762	0.058	0.062	0.0612	0.0535	0.0653	0.0492			
E224P	0.0376	0.0629	0.0229		0.0496		0.0674	0.0319	0.0599	0.0651		0.0595		0.0647			0.0672	0.0468	
E224M	0.0641	0.0672			0.0454		0.0427	0.0587		0.0773	0.0722	0.062		0.0677	0.0615				
E224T	0.0546		0.0613	0.0656	0.064		0.0641	0.0512		0.055	0.0598	0.0595	0.0638	0.0663	0.0681		0.0474	0.0609	0.0616
V200E	0.066	0.0447			0.0677		0.0377	0.0758		0.0679	0.0556				0.0466		0.0447	0.0642	0.0512
T192P	0.0585	0.0641		0.0683	0.0678		0.0452	0.058	0.0667		0.0573	0.0393	0.0663	0.0609	0.0577			0.061	0.0658
W212M	0.0619		0.0598	0.0787	0.0681	0.0585	0.0591	0.0483		0.0774		0.0645	0.0524	0.0394	0.0531	0.0567			
L191T	0.0577	0.059		0.0535	0.0686	0.0646		0.0626	0.0683		0.0574	0.0501	0.0536	0.0508					0.0591
L191I	0.0685	0.0278	0.0772	0.0472	0.0588	0.0716	0.0601	0.0651		0.0575	0.0722	0.0626	0.0607					0.0129	
V210G	0.0793			0.095			0.0156	0.0519		0.0541	0.0487	0.0629	0.0592				0.0704		0.0675
V210D	0.0548	0.0757	0.0696	0.0609	0.0611	0.0551	0.083	0.0596		0.0615	0.059	0.0598	0.063			0.0455	0.0597	0.0535	
T233S	0.0541		0.0581	0.0604	0.0668	0.0585		0.0497	0.0684	0.0577	0.0692	0.0527	0.0676	0.056	0.0592		0.0528	0.0683	
Q194S	0.0536	0.0245	0.0638	0.0784	0.0579			0.0646	0.0602	0.0633	0.076	0.0601	0.0554		0.0524				0.0542
V217H	0.0609			0.055	0.0682	0.0616		0.0503	0.0591	0.0666		0.0635			0.0411		0.0606	0.061	
V217N	0.0581	0.0526	0.0621	0.0531	0.068			0.0451	0.0544	0.071	0.0693	0.0512		0.0555		0.0356	0.0571		
R204N	0.0601	0.0558	0.0629	0.0539	0.0669		0.0659	0.059	0.0589	0.0562		0.0592	0.0454	0.0654	0.0581	0.0562	0.049	0.013	
V183I	0.0603			0.0626	0.0752		0.0723	0.044	0.0509	0.0519	0.0605	0.0245	0.0388	0.0628	0.0544	0.0566		0.0678	0.0469
L235M	0.0652	0.0566	0.0636	0.0693	0.07	0.0657	0.0551	0.0688	0.0627	0.0644	0.0658	0.0343		0.0553	0.0482	0.0672	0.062		0.05
E223F	0.0627	0.0552	0.0582	0.0721	0.0756	0.0701	0.0357	0.054	0.0621			0.0754					0.0707		0.0643
P225R	0.0601	0.0671		0.0676	0.0651		0.055	0.0626	0.0484	0.0608	0.0618	0.064	0.0605	0.0565	0.0536	0.0541	0.0694	0.061	0.074
P225T	0.0688	0.068			0.0736	0.0458		0.0585	0.0701	0.0529	0.073	0.043	0.0453	0.0595	0.0638	0.0655	0.0594	0.0705	0.0708
P225W	0.0468		0.0508	0.0665	0.0709	0.0619		0.0629	0.0436	0.075	0.0509	0.047	0.0512	0.0579	0.0548		0.0522		0.0637
H215G	0.0688		0.0351	0.0676	0.0824	0.0986	0.0612	0.0551	0.0494	0.0535	0.0734	0.0696	0.0568	0.0798			0.0647		
K7A		0.0607		0.0484	0.0627	0.0685		0.196	0.0673		0.0607	0.0532	0.0766	0.0579	0.0494		0.0653		0.0498
G202V	0.0526		0.0723	0.0579	0.0669		0.0454	0.0549	0.0632	0.0507		0.0621		0.053					
G214K	0.057		0.0605	0.0616	0.0616	0.0493		0.0574	0.0601		0.0638	0.0426	0.0423	0.0535	0.0553		0.0478	0.0468	
